Assay results as given in PubChem BioAssay AID624296 (National Center for Advancing Translational Sciences (NCATS), 2012).
Out of some 350,000 compounds screened, about 9,900 (2.8%) were called active. Inconclusive means that the source gave no clear call. Such entries were picked first, then a sample of the others. Calls follow the shape of the dose curve; as a rule, active = well fitted activation curve with a large enough effect; inconclusive = small, poorly fitted or top-dose-only effect; inactive = no such curve, though single readings can be large or run the other way. Potencies of inconclusive entries are left out as doubtful fits.

Experiment: A quantitative high throughput screen for small molecules that induce DNA re-replication in MCF 10a normal breast cells. Also: nearly all actives have a fitted effect of over 50% in size.
Details: MCF 10A DNA re-replication, Hoechst nuclear intensity, 48 h; series mostly up to 46.1 µM
Potency is read from the fitted curve at half-maximal effect; tags tell the direction and shape of the fitted curve.

| SMILES | Potency |
| --- | --- |
| COc1ccc(/C=C/C(=O)Nc2cc(C(F)(F)F)ccc2Cl)cc1OC | inactive |
| CCOc1cccc(-c2cc(C(=O)N/N=C/c3ccc(OC)c(CN4CCOCC4)c3)c3ccccc3n2)c1 | inconclusive [activator, partial curve] |
| COc1ccc(NC(=S)NCCc2c[nH]c3ccccc23)cc1 | inconclusive [activator, partial curve, poor fit] |
| CC1CC1C(=O)OCC(=O)NC(=O)NC12CC3CC(CC(C3)C1)C2 (stereo not drawn) | inactive |
| CCN(CC)S(=O)(=O)c1ccc(NC(=O)c2cccs2)cc1 | inactive |
| Cc1cc(N2CCCCC2)nc2ccc(NC(=O)c3ccc(Br)o3)cc12 | active: 8.2 µM |
| Cc1cc(C)c2c(N)c(C(=O)NNC(=O)c3ccccc3)sc2n1 | inactive |
| OC(COc1ccc(Br)cc1)CN1CCN(c2ccccc2)CC1 (stereo not drawn) | inactive |
| COc1ccc2oc(C(=O)N3CCN(C/C=C/c4ccccc4)CC3)c(C)c2c1 | active: 23.1 µM |
| CC(C)Sc1nc(NCc2ccco2)c2c3c(sc2n1)COC(C)(C)C3 | inconclusive [activator, single point] |
| COC(=O)c1ccc(COc2ccc3c(c2)CCC3)o1 | inactive |
| COc1cccc(/C=N/NC(=O)C(C)Sc2ccccc2)c1 (stereo not drawn) | inconclusive [activator, partial curve, poor fit] |
| COc1cccc(C(=O)Nc2cccc(NC(=O)c3ccccc3Cl)c2)c1 | inactive |
| COc1ccc(C(=O)COC(=O)c2ccccc2O)c(OC)c1 | inactive |
| CCOc1ccc(C(=O)Nc2ccccc2N2CCCC2)cc1 | inconclusive [activator, single point] |
| CCCCCc1cc(=O)oc2c(C(CCN3CCCCC3)c3cc(OC)c(OC)c(OC)c3)c(OC)cc(OC)c12 (stereo not drawn) | inactive |
| COc1ccccc1C(=O)NC(=S)Nc1cc(C(=O)O)ccc1C | inconclusive [activator, partial curve, poor fit] |
| CS(=O)(=O)N1CCCCC1CCN1CCCCC1 (stereo not drawn) | inactive |
| CSc1nc2ccc(NS(=O)(=O)c3ccccc3F)cc2s1 | inconclusive [activator, partial curve, poor fit] |
| COc1cccc(/C=N/Nc2c(Cl)cncc2Cl)c1O | inconclusive [activator, single point] |
| Cc1ccn2c(C(=O)CSc3ccc(Cl)cc3)c(C)nc2c1 | inconclusive [activator, full curve, poor fit] |
| c1ccc(-c2ccccn2)nc1 | inactive |
| O=C(CN1CCN(c2cccc(Cl)c2)CC1)NCc1ccccc1 | inconclusive [activator, partial curve, poor fit] |
| CCOC(=O)c1[nH]cnc1N=Nc1c(O)ccc2ccccc12 | inconclusive [activator, full curve, poor fit] |
| Cc1ccccc1-n1c(O)c(/C=N/N2CCCCC2c2cccnc2)c(=O)[nH]c1=O (stereo not drawn) | inconclusive [activator, partial curve, poor fit] |

| SMILES | Potency |
| --- | --- |
| CCc1ccc(OCC(=O)NNC(=O)c2cnccn2)c(Br)c1 | inconclusive [activator, single point] |
| COc1ccc(C(=O)NCCc2nnc3ccc(SCC(=O)N4CCCCC4)nn23)cc1 | inactive |
| CCCN1C(=O)C(O)(C2COC(C)(C)CC2=O)c2ccccc21 (stereo not drawn) | inactive |
| O=S(=O)(c1ccc(S(=O)(=O)N(Cc2cccs2)CC2CCCO2)cc1)N1CCCCC1 (stereo not drawn) | inconclusive [activator, partial curve, poor fit] |
| O=C1CC(c2cccc([N+](=O)[O-])c2)c2c(ccc3ccccc23)N1 (stereo not drawn) | inconclusive [activator, single point] |
| C=CCNc1nc(N2CCCCC2)c(C#N)c2c1CN(Cc1ccccc1)CC2 | active: 16.4 µM |
| CC(=O)Oc1ccc(C(=O)Nc2ccccc2C(=O)N2CCCCC2)cc1 | inactive |
| CC1CC(C)CN(S(=O)(=O)c2ccc(C(=O)Nc3nnc(-c4cccs4)o3)cc2)C1 (stereo not drawn) | inconclusive [activator, partial curve, poor fit] |
| Cc1cc2c(c(=O)n1Cc1cccnc1)C(Cc1ccccc1)C(C#N)=C(N)O2 (stereo not drawn) | inactive |
| CCOC(=O)/C=C/C(=O)NNC(=O)c1ccccc1Cl | inconclusive [activator, single point] |
| Cc1ccc(NC(=O)c2cccc(NC(=O)/C=C/c3ccco3)c2)cc1C | inconclusive [activator, full curve, poor fit] |
| CC1=C(C(=O)OCc2ccc(C)cc2)C(c2ccc(O)c([N+](=O)[O-])c2)NC(=O)N1 (stereo not drawn) | inconclusive [activator, single point] |
| Cc1ccccc1NCc1ccc([N+](=O)[O-])s1 | active: 4.61 µM |
| CNC(=S)NNC(=O)c1c(C)nc2cc(C)ccn12 | inactive |
| CC(=O)c1cccc(NC(=O)C2(c3ccccc3)CC2(Cl)Cl)c1 (stereo not drawn) | inconclusive [activator, partial curve] |
| COc1ccc2c(c1)OC[C@H]1[C@H]2N2C(=O)CN(Cc3ccco3)C(=O)[C@@]2(C)[C@H]1c1ccccc1 | inconclusive [activator, single point] |
| Oc1csc(Cc2nc(-c3ccc(Br)cc3)cs2)n1 | inconclusive [activator, full curve, poor fit] |
| O=CNc1ccccc1 | inconclusive [activator, full curve, poor fit] |
| Cc1ccc(-n2cc(CN3CCN(c4ccccn4)CC3)c(-c3ccc(F)cc3)n2)cc1 | active: 18.4 µM |
| Cc1ccc(CN2CCN(/N=C\C(Br)=C\c3ccccc3)CC2)cc1 | inconclusive [activator, partial curve, poor fit] |
| O=C(CN1CCCC1)Nc1cc(C(F)(F)F)ccc1Cl | inactive |
| Cc1ccc(C)c(NC(=O)CN(C)C(=O)c2ccc(-c3cccc(C(F)(F)F)c3)o2)c1 | inactive |
| CCOC(=O)C1CCCN(c2ncnc3c2cnn3-c2ccc(Cl)cc2)C1 (stereo not drawn) | inconclusive [activator, partial curve, poor fit] |
| CC(C)C(=O)N1CCN(c2nc(-c3ccccc3)c3c(c2C#N)CCCC3)CC1 | active: 18.4 µM |
| OCCC1CN(Cc2cnc(-c3ccc(Cl)cc3)nc2)CCN1C1CCCCC1 (stereo not drawn) | inconclusive [activator, single point] |

| SMILES | Potency |
| --- | --- |
| COCCN1C=C(C(=O)OC)C(c2ccccc2C(F)(F)F)C(C(=O)OC)=C1 | active: 16.4 µM |
| O=C(c1ccc(-c2cccc(C(F)(F)F)c2)o1)N1CCN(c2ccccc2)CC1 | inactive |
| O=C(c1cccc(Cl)c1)N1CCN(Cc2ccc3c(c2)OCO3)CC1 | inactive |
| O=C(O)c1cccc2c1C(=O)c1ccc(Cl)cc1S2(=O)=O | inconclusive [activator, partial curve, poor fit] |
| COc1ccc2cc(Br)ccc2c1CC(=O)NCCCN1CCOCC1 | inconclusive [activator, partial curve, poor fit] |
| O=C(Nc1ccc(-c2cn3ccsc3n2)cc1)C1COc2ccccc2O1 (stereo not drawn) | inconclusive [activator, partial curve, poor fit] |
| Cc1cc(C)c(C#N)c(SCC(=O)Nc2nonc2N)n1 | inconclusive [activator, single point] |
| O=C(NC(=S)NCCCN1CCOCC1)c1ccc(Br)cc1 | inactive |
| COc1cccc(/C=N/NC(=O)c2cc3c(OC)c(OC)ccc3[nH]2)c1OC | inconclusive [activator, full curve, poor fit] |
| CC(C)(C)c1ccc(OCC(=O)NNC(=O)c2cccnc2)cc1 | inactive |
| CCC(CC)c1nnc(NC(=O)CCc2ccc(OC)cc2)s1 | inconclusive [activator, partial curve, poor fit] |
| CSc1nc2ccccc2c(=O)n1C1CCCCC1 | inconclusive [activator, single point] |
| CCCc1nc2ccc(NC(C)=O)cc2c(=O)n1Cc1cccc(Cl)c1 | inactive |
| Cc1ccc(C)c(OCCC(=O)N2CCN(S(=O)(=O)c3cc(C)ccc3C)CC2)c1 | inconclusive [activator, partial curve, poor fit] |
| O=C(CCN1C(=O)/C(=C/c2cccs2)SC1=S)N1CCCCC1 | inconclusive [activator, partial curve] |
| COc1ccc(C(=O)NC(=S)Nc2ccc3oc(=O)ccc3c2)cc1 | inconclusive [activator, full curve] |
| Cc1nc(-c2cccc(S(=O)(=O)N3CCCCC3)c2)cs1 | inconclusive [activator, single point] |
| COc1ccc(Br)cc1S(=O)(=O)N(CC(=O)N1CCN(C)CC1)c1ccccc1 | inconclusive [activator, single point] |
| COCCC(=O)N1CCCC(C(=O)c2ccc(Oc3ccccc3)cc2)C1 (stereo not drawn) | inactive |
| COc1ccc(C2NC(=O)c3sc4nc(C)c(C(C)=O)c(-c5ccc(Cl)cc5)c4c3N2)cc1 (stereo not drawn) | active: 16.4 µM |
| CC(C)(C)CC(C)(C)n1nnnc1N | inactive |
| COc1cc(/C=C/C(=O)Nc2ccncc2)cc(OC)c1OC | inactive |
| O=C1C2C3C=CC(C3)C2C(=O)N1c1ccc2ccccc2n1 (stereo not drawn) | inconclusive [activator, single point] |
